# Source: the supplement of paper PMC4604168 (melanoma cell lines)
# This is one part of the list. Repeats are few or missing, and single values can be far off.
# Key:
# Assay in all cases: cell count relative to DMSO control; melanoma cells; higher = more viable cells
# Conditions in all cases: library dose: low library concentration; 72 h
# MZ2-MEL = tested on: MZ2-MEL
# MeWo = tested on: MeWo
# RPMI7951 = tested on: RPMI7951
# RVH-421 = tested on: RVH-421
# SkMel28 = tested on: SkMel28
# SkMel2 = tested on: SkMel2
# SkMel30 = tested on: SkMel30
# UACC62 = tested on: UACC62
# 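Further: cell number obtained by counting DAPI-stained nuclei in high-throughput microscope images with image analysis software, screen run in 1,536-well plates.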
smiles,measurement,setting,value
"Cc1cc(Nc2cc(N3CCN(C)CC3)nc(/C=C/c3ccccc3)n2)n[nH]1 + C#Cc1cccc(Nc2ncnc3cc(OCCOC)c(OCCOC)cc23)c1 [erlotinib] (first compound 0.04 µM, partner dose 0.8 µM)",cell count,MZ2-MEL,96.7%
same,cell count,MeWo,80.9%
same,cell count,RPMI7951,83.1%
same,cell count,RVH-421,82.2%
same,cell count,SkMel28,85%
same,cell count,SkMel2,90%
same,cell count,SkMel30,88.1%
same,cell count,UACC62,73.1%
"Cc1cc(Nc2cc(N3CCN(C)CC3)nc(/C=C/c3ccccc3)n2)n[nH]1 + CNC(=O)c1cc(Oc2ccc(NC(=O)Nc3ccc(Cl)c(C(F)(F)F)c3)cc2)ccn1 [sorafenib] (first compound 0.04 µM, partner dose 0.4 µM)",cell count,MZ2-MEL,83.1%
same,cell count,MeWo,86.9%
same,cell count,RPMI7951,107%
same,cell count,RVH-421,99.3%
same,cell count,SkMel28,101%
same,cell count,SkMel2,103%
same,cell count,SkMel30,117%
same,cell count,UACC62,96.3%
"Cc1cn(-c2cc(NC(=O)c3ccc(C)c(Nc4nccc(-c5cccnc5)n4)c3)cc(C(F)(F)F)c2)cn1 [nilotinib] + CCCCCCCCc1ccc(CCC(N)(CO)CO)cc1 [fingolimod] (first compound 0.2 µM, partner dose 2 µM)",cell count,MZ2-MEL,97.2%
same,cell count,MeWo,88.2%
same,cell count,RPMI7951,88.3%
same,cell count,RVH-421,104%
same,cell count,SkMel28,78.7%
same,cell count,SkMel2,88%
same,cell count,SkMel30,92.9%
same,cell count,UACC62,90.8%
"COc1ccc(C2=N[C@@H](c3ccc(Cl)cc3)[C@@H](c3ccc(Cl)cc3)N2C(=O)N2CCNC(=O)C2)c(OC(C)C)c1 [Nutlin-3] + OCc1c[nH]c2ccccc12 [Indole-3-carbinol] (first compound 0.1 µM, partner dose 0.8 µM)",cell count,MZ2-MEL,101%
same,cell count,MeWo,88.2%
same,cell count,RPMI7951,82.7%
same,cell count,RVH-421,87.9%
same,cell count,SkMel28,85.3%
same,cell count,SkMel2,101%
same,cell count,SkMel30,109%
same,cell count,UACC62,80.1%
"Cc1cn(-c2cc(NC(=O)c3ccc(C)c(Nc4nccc(-c5cccnc5)n4)c3)cc(C(F)(F)F)c2)cn1 [nilotinib] + Cc1nc(Nc2ncc(C(=O)Nc3c(C)cccc3Cl)s2)cc(N2CCN(CCO)CC2)n1 [dasatanib] (first compound 0.2 µM, partner dose 0.004 µM)",cell count,MZ2-MEL,92.7%
same,cell count,MeWo,93.8%
same,cell count,RPMI7951,66.9%
same,cell count,RVH-421,140%
same,cell count,SkMel28,79.6%
same,cell count,SkMel2,112%
same,cell count,SkMel30,80.3%
same,cell count,UACC62,77.1%
"COc1ccc(C2=N[C@@H](c3ccc(Cl)cc3)[C@@H](c3ccc(Cl)cc3)N2C(=O)N2CCNC(=O)C2)c(OC(C)C)c1 [Nutlin-3] + CN1CCN(c2ccc3nc(-c4c(N)c5c(F)cccc5[nH]c4=O)[nH]c3c2)CC1 [Dovitinib] (first compound 0.1 µM, partner dose 0.1 µM)",cell count,MZ2-MEL,96.7%
same,cell count,MeWo,102%
same,cell count,RPMI7951,114%
same,cell count,RVH-421,87.1%
same,cell count,SkMel28,92.4%
same,cell count,SkMel2,101%
same,cell count,SkMel30,99.7%
same,cell count,UACC62,83.2%
"COc1ccc(C2=N[C@@H](c3ccc(Cl)cc3)[C@@H](c3ccc(Cl)cc3)N2C(=O)N2CCNC(=O)C2)c(OC(C)C)c1 [Nutlin-3] + Clc1ccc(Nc2nnc(Cc3ccncc3)c3ccccc23)cc1 [vatalanib] (first compound 0.1 µM, partner dose 2 µM)",cell count,MZ2-MEL,91.5%
same,cell count,MeWo,73%
same,cell count,RPMI7951,79.3%
same,cell count,RVH-421,75%
same,cell count,SkMel28,75.5%
same,cell count,SkMel2,94.5%
same,cell count,SkMel30,89%
same,cell count,UACC62,79.3%
"Cn1c(=O)n(-c2ccc(C(C)(C)C#N)cc2)c2c3cc(-c4cnc5ccccc5c4)ccc3ncc21 + CC(=O)c1c(C)c2cnc(Nc3ccc(N4CCNCC4)cn3)nc2n(C2CCCC2)c1=O [palbociclib] (first compound 0.004 µM, partner dose 0.04 µM)",cell count,MZ2-MEL,80.6%
same,cell count,MeWo,73.1%
same,cell count,RPMI7951,77.5%
same,cell count,RVH-421,76.8%
same,cell count,SkMel28,71.7%
same,cell count,SkMel2,68.4%
same,cell count,SkMel30,72%
same,cell count,UACC62,67.7%
"Cn1c(=O)n(-c2ccc(C(C)(C)C#N)cc2)c2c3cc(-c4cnc5ccccc5c4)ccc3ncc21 + Cn1nnc2c(C(N)=O)ncn2c1=O [temozolomide] (first compound 0.004 µM, partner dose 2 µM)",cell count,MZ2-MEL,92.6%
same,cell count,MeWo,83%
same,cell count,RPMI7951,85.6%
same,cell count,RVH-421,105%
same,cell count,SkMel28,87.4%
same,cell count,SkMel2,88.7%
same,cell count,SkMel30,60.6%
same,cell count,UACC62,69.2%
"Cn1c(=O)n(-c2ccc(C(C)(C)C#N)cc2)c2c3cc(-c4cnc5ccccc5c4)ccc3ncc21 + COc1ccc(Cl)c(Nc2nc3ccccc3nc2NS(=O)(=O)c2cccc(NC(=O)C(C)(C)N)c2)c1 [XL147] (first compound 0.004 µM, partner dose 0.8 µM)",cell count,MZ2-MEL,92.5%
same,cell count,MeWo,79.6%
same,cell count,RPMI7951,90.1%
same,cell count,RVH-421,86.2%
same,cell count,SkMel28,74.5%
same,cell count,SkMel2,89.9%
same,cell count,SkMel30,91%
same,cell count,UACC62,88.9%
"CC(C)C[C@H](NC(=O)[C@H](Cc1ccccc1)NC(=O)c1cnccn1)B(O)O [Bortezomib] + OCc1c[nH]c2ccccc12 [Indole-3-carbinol] (first compound 0.001 µM, partner dose 0.8 µM)",cell count,MZ2-MEL,87.7%
same,cell count,MeWo,85.2%
same,cell count,RPMI7951,79.9%
same,cell count,RVH-421,60.9%
same,cell count,SkMel28,89.3%
same,cell count,SkMel2,97.5%
same,cell count,SkMel30,92.6%
same,cell count,UACC62,89.7%
"Cc1cn(-c2cc(NC(=O)c3ccc(C)c(Nc4nccc(-c5cccnc5)n4)c3)cc(C(F)(F)F)c2)cn1 [nilotinib] + OCc1c[nH]c2ccccc12 [Indole-3-carbinol] (first compound 0.2 µM, partner dose 0.8 µM)",cell count,MZ2-MEL,87%
same,cell count,MeWo,95.9%
same,cell count,RPMI7951,88.1%
same,cell count,RVH-421,90.3%
same,cell count,SkMel28,113%
same,cell count,SkMel2,94%
same,cell count,SkMel30,78%
same,cell count,UACC62,84%
"COc1ccc(C2=N[C@@H](c3ccc(Cl)cc3)[C@@H](c3ccc(Cl)cc3)N2C(=O)N2CCNC(=O)C2)c(OC(C)C)c1 [Nutlin-3] + CCN(CC)CCNC(=O)c1c(C)[nH]c(/C=C2\C(=O)Nc3ccc(F)cc32)c1C [sunitinib] (first compound 0.1 µM, partner dose 0.4 µM)",cell count,MZ2-MEL,101%
same,cell count,MeWo,88.1%
same,cell count,RPMI7951,95.4%
same,cell count,RVH-421,92.5%
same,cell count,SkMel28,85.3%
same,cell count,SkMel2,113%
same,cell count,SkMel30,80.2%
same,cell count,UACC62,105%
"Cc1cn(-c2cc(NC(=O)c3ccc(C)c(Nc4nccc(-c5cccnc5)n4)c3)cc(C(F)(F)F)c2)cn1 [nilotinib] + COc1ccc(C2=N[C@@H](c3ccc(Cl)cc3)[C@@H](c3ccc(Cl)cc3)N2C(=O)N2CCNC(=O)C2)c(OC(C)C)c1 [Nutlin-3] (first compound 0.2 µM, partner dose 0.1 µM)",cell count,MZ2-MEL,89.8%
same,cell count,MeWo,104%
same,cell count,RPMI7951,85.5%
same,cell count,RVH-421,91.3%
same,cell count,SkMel28,87%
same,cell count,SkMel2,93.9%
same,cell count,SkMel30,98.7%
same,cell count,UACC62,98.4%
"Cc1cn(-c2cc(NC(=O)c3ccc(C)c(Nc4nccc(-c5cccnc5)n4)c3)cc(C(F)(F)F)c2)cn1 [nilotinib] + COCC[n+]1c2c(n(Cc3cnccn3)c1C)C(=O)c1ccccc1C2=O [YM155] (first compound 0.2 µM, partner dose 0.0004 µM)",cell count,MZ2-MEL,65.9%
same,cell count,MeWo,98.2%
same,cell count,RPMI7951,87.4%
same,cell count,RVH-421,110%
same,cell count,SkMel28,76.3%
same,cell count,SkMel2,86.6%
same,cell count,SkMel30,109%
same,cell count,UACC62,82.5%
"COc1ccc(C2=N[C@@H](c3ccc(Cl)cc3)[C@@H](c3ccc(Cl)cc3)N2C(=O)N2CCNC(=O)C2)c(OC(C)C)c1 [Nutlin-3] + CCCCCCCCc1ccc(CCC(N)(CO)CO)cc1 [fingolimod] (first compound 0.1 µM, partner dose 2 µM)",cell count,MZ2-MEL,96.7%
same,cell count,MeWo,90.9%
same,cell count,RPMI7951,62.7%
same,cell count,RVH-421,90.7%
same,cell count,SkMel28,82.6%
same,cell count,SkMel2,84.1%
same,cell count,SkMel30,113%
same,cell count,UACC62,79%
"COc1ccc(C2=N[C@@H](c3ccc(Cl)cc3)[C@@H](c3ccc(Cl)cc3)N2C(=O)N2CCNC(=O)C2)c(OC(C)C)c1 [Nutlin-3] + CS(=O)(=O)CCNCc1ccc(-c2ccc3ncnc(Nc4ccc(OCc5cccc(F)c5)c(Cl)c4)c3c2)o1 [lapatinib] (first compound 0.1 µM, partner dose 0.8 µM)",cell count,MZ2-MEL,105%
same,cell count,MeWo,113%
same,cell count,RPMI7951,118%
same,cell count,RVH-421,86.7%
same,cell count,SkMel28,106%
same,cell count,SkMel2,99.1%
same,cell count,SkMel30,98.6%
same,cell count,UACC62,90.2%
"COc1ccc(C2=N[C@@H](c3ccc(Cl)cc3)[C@@H](c3ccc(Cl)cc3)N2C(=O)N2CCNC(=O)C2)c(OC(C)C)c1 [Nutlin-3] + CC(=O)c1c(C)c2cnc(Nc3ccc(N4CCNCC4)cn3)nc2n(C2CCCC2)c1=O [palbociclib] (first compound 0.1 µM, partner dose 0.04 µM)",cell count,MZ2-MEL,81.2%
same,cell count,MeWo,88.4%
same,cell count,RPMI7951,80.2%
same,cell count,RVH-421,83%
same,cell count,SkMel28,96.9%
same,cell count,SkMel2,93.4%
same,cell count,SkMel30,87.4%
same,cell count,UACC62,82.9%
"Cc1cn(-c2cc(NC(=O)c3ccc(C)c(Nc4nccc(-c5cccnc5)n4)c3)cc(C(F)(F)F)c2)cn1 [nilotinib] + C=C(c1ccc(C(=O)O)cc1)c1cc2c(cc1C)C(C)(C)CCC2(C)C [Bexarotene] (first compound 0.2 µM, partner dose 2 µM)",cell count,MZ2-MEL,101%
same,cell count,MeWo,78%
same,cell count,RPMI7951,95.5%
same,cell count,RVH-421,95%
same,cell count,SkMel28,70.1%
same,cell count,SkMel2,77.7%
same,cell count,SkMel30,96.8%
same,cell count,UACC62,106%
"CC(C)C[C@H](NC(=O)[C@H](Cc1ccccc1)NC(=O)c1cnccn1)B(O)O [Bortezomib] + Cn1c(Nc2ccc(C(F)(F)F)cc2)nc2cc(Oc3ccnc(-c4ncc(C(F)(F)F)[nH]4)c3)ccc21 [CHIR265] (first compound 0.001 µM, partner dose 0.08 µM)",cell count,MZ2-MEL,45.1%
same,cell count,MeWo,75.4%
same,cell count,RPMI7951,53.1%
same,cell count,RVH-421,46.2%
same,cell count,SkMel28,66.9%
same,cell count,SkMel2,105%
same,cell count,SkMel30,44.2%
same,cell count,UACC62,50.3%
"CC(C)C[C@H](NC(=O)[C@H](Cc1ccccc1)NC(=O)c1cnccn1)B(O)O [Bortezomib] + C[C@]1(c2nc3c(C(N)=O)cccc3[nH]2)CCCN1 [Veliparib] (first compound 0.001 µM, partner dose 1.4 µM)",cell count,MZ2-MEL,86.9%
same,cell count,MeWo,86.1%
same,cell count,RPMI7951,86.8%
same,cell count,RVH-421,79.4%
same,cell count,SkMel28,108%
same,cell count,SkMel2,93.2%
same,cell count,SkMel30,81.6%
same,cell count,UACC62,67.8%
"CC(C)C[C@H](NC(=O)[C@H](Cc1ccccc1)NC(=O)c1cnccn1)B(O)O [Bortezomib] + Cn1nnc2c(C(N)=O)ncn2c1=O [temozolomide] (first compound 0.001 µM, partner dose 2 µM)",cell count,MZ2-MEL,38.1%
same,cell count,MeWo,76.7%
same,cell count,RPMI7951,62.6%
same,cell count,RVH-421,32.8%
same,cell count,SkMel28,82.2%
same,cell count,SkMel2,91.1%
same,cell count,SkMel30,65.9%
same,cell count,UACC62,67.4%
